Test results published in the supplement of paper PMC11417369.
± gives the standard deviation of the averaged measurements. This is one part of the list.

tested on: PfAP2-EXP AP2 domain (GST-tagged); assay: gcPBM binding intensity (ln(normalized median fluorescence intensity)); higher = stronger DNA binding
Procedure, shortened: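 Binding intensity is the highest Masliner-normalised natural-log median intensity over replicate spots in either probe orientation. To obtain it, GST-tagged P. falciparum DNA-binding domains made in E. coli were incubated for 1 h on an Agilent 4 × 180k array of primer-extended double-stranded 36-bp intergenic genomic probes plus negative controls. Detection used Alexa488 anti-GST antibody with scanning at 488 nm.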

Sequence	gcPBM binding intensity (ln)
TATACGTGTTTTATTTGTACTTAAGCAGGTAAGCAT [XGTACX_site193]	8.54 ± 0.25
CTATATATTTTTTCTTAACACACATATATAAAATAA [CACACA_site9165]	8.38 ± 0.36
TTATTTTTTAATTATATTCAAAATTAAAAAAAAAAA [XGTACX_negctrl_site226]	8.03 ± 0.53
ATTGATAAATTAACTAGTACACATATAAATATATTA [XGTACX_site2325]	8.3 ± 0.21
ATTAAAAAAAAAAAAAAAAAAAAAAAAAAAAAAAAA [CACACA_negctrl_site1060]	7.93 ± 0.38
AATATAAATGTGATTACACACAACAGATTTAAATGG [CACACA_site4802]	8.56 ± 0.42
ATCATTTAAACAATATGTACTCATTGTAGATATGGT [XGTACX_site5088]	8.53 ± 0.26
TGAATAAAATATTATACACACATATGTATTTAACAT [CACACA_site4694]	8.32 ± 0.37
AATGGGATCATGGTATGTACTTACACAAATGAATTA [XGTACX_site5389]	8.54 ± 0.36
TTGTATTTACTATACACACACATACATACATACATA [CACACA_site4603]	8.62 ± 0.43
TATAAATATAAATACTGTACATTATATTATATAATA [XGTACX_site2480]	8.24 ± 0.47
CGTTACACAAAAATATGTACATATATACATATATAT [XGTACX_site4631]	8.6 ± 0.35
TAAAAATAATATTAATGTACATTACATATTAATATA [XGTACX_site1019]	8.21 ± 0.39
TATTCCCCCAAACACACACACACACCCACATACCAC [CACACA_site2304]	9.33 ± 0.23
AATGCGCATTTTTTTTTTTTTTTTTTTTTTTTTTTT [XGTACX_negctrl_site258]	9.36 ± 0.25
ATATATATATATATGTGTACATATTAGTGATATAAT [XGTACX_site7161]	9.97 ± 0.45
TAAGCCACCATATTTACACACACATCAAAATGTATT [CACACA_site1815]	8.52 ± 0.33
ATAAAGCCATACAATACACACATTTTACATGTCGGT [CACACA_site3265]	8.52 ± 0.46
ATTCTATATGTTACATAAACCTATATTTTTTTTTTT [CACACA_negctrl_site860]	8.57 ± 0.4
GAAAAAAGAAATTTATGTACATACATATATATATAT [XGTACX_site7888]	10 ± 0.28
ATATGTAAAATATGGGGTACGAAGGTAGGTAGGTAA [XGTACX_site1392]	9.24 ± 0.49
AAAAAAAAAAAAAAAAGTACATATGCTCAAGAGATG [XGTACX_site3783]	8.77 ± 0.23

Sequence	gcPBM binding intensity (ln)
TTTTTTTTTTAATTAACACACATAAATATAAATATA [CACACA_site7527]	8.16 ± 0.33
TATATATATATATATACATGCATCATTGTTCACCTT [TGCATGCA_site177]	10.1 ± 0.36
TAATATTGACTATATACACACATATAAATATAAATA [CACACA_site6414]	8.4 ± 0.33
CATTCAAAGAAAAACAGTACGTGTAGCAAAAGGCCT [XGTACX_site266]	8.89 ± 0.62
TAAATAATATAATTATGTACGTATTTCTTTATTTTA [XGTACX_site8410]	8.34 ± 0.3
GCTGAAAATAAATGAAGTACACAAGTAATATATATA [XGTACX_site6205]	8.96 ± 0.23
TAATAAATAAAATATGCACACAAATATAGGAAACAA [CACACA_site8820]	9.03 ± 0.18
TAAAAGGTGTATATAATACACACGTGGGATTAGAAT [CACACA_site610]	8.89 ± 0.42
ATATATATATATATATGTACATAATAATATATATTA [XGTACX_site111]	10.1 ± 0.23
ATATGTTATATGTAATGTACTTTTGATGTATATATT [XGTACX_site8615]	8.44 ± 0.41
AAAATATTATAAATTTGTACTTATAAATATTGTATA [XGTACX_site8165]	8.18 ± 0.41
AAAATAAACAATGAACAATAAACAATGAACAATGAA [CACACA_negctrl_site1194]	8.79 ± 0.45
AAAAAATATACATATACACACATATGTATATAGAAT [CACACA_site2170]	8.38 ± 0.23
TATATAAAGCATTGTAGTACTACCAATATTTTTTTT [XGTACX_site3523]	8.54 ± 0.2
ATATGTAAATAAATATGTACTCATTTATTATTTTAT [XGTACX_site8748]	8.51 ± 0.3
CGTTATATATATAAAAGTACAAAAATTAAACATTCC [XGTACX_site4568]	8.63 ± 0.4
ATATATACAAGTATTTTTTTTTCAAACATTATTTTT [CACACA_negctrl_site1808]	8.35 ± 0.37
ATATTTTATGTGTTGGTGCACATCTTTATTTAAACT [GTGCAC_site9736]	9.06 ± 0.2
ATATGTATATTTTTTTGTACGTATTTATGTGTGTGT [XGTACX_site2093]	8.73 ± 0.43
ATATATATAATATAATGTACGTATAATAATATGAGA [XGTACX_site2282]	8.76 ± 0.33
TTCAATAGTAAGTATACACACATATATATATATAAA [CACACA_site2687]	8.8 ± 0.38
TAATTCGCAAAAGAAAGAAATTAAGAAAAAGAAAAA [XGTACX_negctrl_site614]	8.32 ± 0.68

Sequence	gcPBM binding intensity (ln)
CAAGCTATGTATTCTACACACACATACACCCATATA [CACACA_site9133]	8.9 ± 0.6
TTTCTTTTTTTTTTTTCATTGATCCATTTATGATTA [TGCATGCA_negctrl_site225]	8.39 ± 0.57
TTATAGGTTCTATACATATATTTATATATGTACAGA [CACACA_negctrl_site60]	8.02 ± 0.34
TTTTTAAAAATATACACACACAGATATTATAGATAT [CACACA_site6511]	8.61 ± 0.57
TTAATATATTAAATCTTACACACTAAAAAATATGTA [CACACA_site307]	8.1 ± 0.38
TAAAAAAAATAAACGTGTACATAAAAATGAATATGT [XGTACX_site119]	8.92 ± 0.3
AGTATACATATATATACACACACACCGATATATATA [CACACA_site8357]	8.75 ± 0.4
TATGCGTCTTGCCTTGCACACTTTTATGAAAAAAAA [CACACA_site5174]	8.54 ± 0.22
AACGTTAAAAAAAAAATATATATAAGGAGAAAGCAC [XGTACX_negctrl_site338]	9.14 ± 0.33
GAAAATATTATAGCACCACACACTTATTTTATATAT [CACACA_site2265]	8.74 ± 0.27
TCGTACTTGTATTATGCACACATATAATTAAACATA [CACACA_site9089]	8.65 ± 0.18
AATAATCAAATATTAAAAATTGTGCAAAAAAAAAAA [XGTACX_negctrl_site399]	8.62 ± 0.38
AAAAAAAAAAATATATTATTTTACTTGTTTATTTTT [GTGCAC_negctrl_site435]	8.16 ± 0.35
TATGAAAAAATATATACACACATAATAAAGGTATAT [CACACA_site3737]	8.67 ± 0.45
TAATATTATATATAAACACACATACCCATGTAAATA [CACACA_site5170]	8.71 ± 0.47
TTTGTTTTAAATATTATACACACGTAAAAGTATAAT [CACACA_site7954]	8.5 ± 0.35
ATATATATATCAACAACACACGATTAACTAAAAAAA [CACACA_site302]	9.12 ± 0.16
TTTTTTTAAACTGAAAGTACTTATTCCAAGAAAATA [XGTACX_site50]	8.24 ± 0.38
ATAATGACTAAATTTAAACACACAAGGGGAGTTTAC [CACACA_site8209]	8.33 ± 0.42
ATAAGATATGTATATACACACATTTATTTACATATA [CACACA_site3263]	8.42 ± 0.59
TATATATATATATACACACACATATATATATATATA [CACACA_site1346]	9.96 ± 0.37
GCATAAGAAATAAATAGTACACACATAGACACACAC [XGTACX_site3095]	9.21 ± 0.19

Sequence	gcPBM binding intensity (ln)
AAAACAAATGAGTACACACACATAAAAGTTGAAAAT [CACACA_site6238]	8.81 ± 0.52
CGCACAAAAATATACACACACACATCTATATTTATT [CACACA_site7675]	8.75 ± 0.34
TACCCATATTAATATGTGCGCATATAAAAGTCAAAC	9.09 ± 0.47
TTATATATATATAATACACACATAATAATATATTTA [CACACA_site3038]	8.25 ± 0.4
GAAATAGAAATAAAATAGGCATACAATAGAACTAAG [TGCATGCA_negctrl_site537]	9.04 ± 0.58
ATTTTTTTTATTTTTTCAATATATATATATATATAT [CACACA_negctrl_site1444]	10.2 ± 0.19
ATATATGAGCAAAAATATATAAGATAACACATAAAT [CACACA_negctrl_site167]	8.77 ± 0.47
TTATATATATATTATAGTACATATATAATATAGTAA [XGTACX_site6869]	8.57 ± 0.85
TCTCTATAAATAAATACATGCATATAATAAAGAATT [TGCATGCA_site710]	9.04 ± 0.45
AATATATAAATAAATACACACATAAAATAGAAATAT [CACACA_site1663]	9.03 ± 0.24
AAAAACAAAAAAGAAGCACACATATATATATATATA [CACACA_site8779]	10.1 ± 0.32
TATTTAAAAATATATACACACATTTTATATTATTAT [CACACA_site781]	8.16 ± 0.38
CCTTATTATTATTTTACACACGTCCTAATAAGAGGA [CACACA_site1319]	8.68 ± 0.43
AATATTATATATATGGGTACTAATTCCTTTAATTTC [XGTACX_site102]	8.15 ± 0.3
TTTATCTGATATATTACACACAAAAAAAAAAAAAAA [CACACA_site7637]	8.19 ± 0.28
TATTTTACAAAATAAGGTACGTAAATATATGGTAGG [XGTACX_site2133]	8.97 ± 0.35
AAATATCTTTTATATTGTACATATTCCTTATGTGGA [XGTACX_site7638]	8.27 ± 0.49
ATAAAACAAAAATATAAACACACATACATTGGTTTT [CACACA_site8809]	8.16 ± 0.39
ATAAAAAATAAATATATACATACATACATACATATA [XGTACX_negctrl_site507]	8.21 ± 0.49
TTTTCAAAAATATACACACACATAAATATAGGTATA [CACACA_site6506]	8.51 ± 0.47
TTGATTTACTATAGATGTACGTAAAATATAAATAAA [XGTACX_site8256]	8.66 ± 0.33
AATTTAAAAGAAAAAGAAAAATAATAAACAGAAGCA [XGTACX_negctrl_site503]	8.86 ± 0.47
